Values joined by “and” are separate entries in the source; they are usually repeats but may differ in a detail not shown here. Equal values may be shown once. This continues a long series; more values of the same kind are listed elsewhere.
Assay: Plasma concentration vs. time profile of Compound Ib in rhesus after single subcutaneous dose (SHIV challenge study)
Assay type: in vivo, rhesus macaques

SMILES: CC(C)(C#Cc1ccc(-c2ccc(Cl)c3c(NS(=O)(=O)C4CC4)nn(CC(F)F)c23)c([C@H](Cc2cc(F)cc(F)c2)NC(=O)Cn2nc(C(F)F)c3c2C(F)(F)[C@@H]2C[C@H]32)n1)S(C)(=O)=O [Compound Ib, N—((S)-1-(3-(4-chloro-3-(cyclopropanesulfonamido)-1-(2,2-difluoroethyl)-1H-indazol-7-yl)-6-(3-methyl-3-(methylsulfonyl)but-1-yn-1-yl)pyridin-2-yl)-2-(3,5-difluorophenyl)ethyl)-2-((3b S,4aR)-3-(difluoromethyl)-5,5-difluoro-3b,4,4a,5-tetrahydro-1H-cyclopropa[3,4]cyclopenta[1,2-c]pyrazol-1-yl)acetamide]
- Plasma Compound Ib Concentrations (150 mg/kg SC day 0, individual animals, study week 9, SHIV dose 33 x TCID50): 25 nM and 66 nM and 41 nM and 79 nM
- Plasma Compound Ib Concentrations (150 mg/kg SC day 0, individual animals, study week 10, SHIV dose 33 x TCID50): 51 nM and 157 nM and 35 nM and 37 nM and 31 nM and 47 nM and 61 nM and 87 nM
- Plasma Compound Ib Concentrations (150 mg/kg SC day 0, individual animals, study week 11, SHIV dose 100 x TCID50): 345 nM and 41 nM and 18 nM and 14 nM and 15 nM and 26 nM and 16 nM and 52 nM
- Plasma Compound Ib Concentrations (150 mg/kg SC day 0, individual animals, study week 12, SHIV dose 100 x TCID50): 44 nM and 112 nM and 35 nM and 13 nM and 19 nM and 47 nM and 59 nM and 58 nM
- Plasma Compound Ib Concentrations (150 mg/kg SC day 0, individual animals, study week 13, SHIV dose 100 x TCID50): 37 nM and 51 nM and 41 nM and 7.3 nM and 13 nM and 44 nM and 61 nM and 42 nM
- Plasma Compound Ib Concentrations (150 mg/kg SC day 0, individual animals, study week 14, SHIV dose 100 x TCID50): 33 nM and 84 nM and 22 nM and 5.2 nM and 13 nM and 34 nM and 31 nM and 40 nM
- Plasma Compound Ib Concentrations (150 mg/kg SC day 0, individual animals, study week 15, SHIV dose 100 x TCID50): 26 nM and 39 nM and 19 nM and 3.2 nM and 8.9 nM and 16 nM and 32 nM and 22 nM
- Plasma Compound Ib Concentrations (150 mg/kg SC day 0, individual animals, study week 16, SHIV dose N/A): 11 nM and 28 nM and 13 nM (2×) and 1.6 nM and 6.1 nM and 18 nM and 12 nM
- Plasma Compound Ib Concentrations (150 mg/kg SC day 0, individual animals, study week 17, SHIV dose N/A): 12 nM and 21 nM (2×) and 14 nM (2×) and 1.2 nM and 5.1 nM and 17 nM
- Plasma Compound Ib Concentrations (300 mg/kg SC day 0, individual animals, study week 1, SHIV dose 10 x TCID50): 6745 nM
- Plasma Compound Ib Concentrations (300 mg/kg SC day 0, individual animals, study week 2, SHIV dose 10 x TCID50): 5021 nM
- Plasma Compound Ib Concentrations (300 mg/kg SC day 0, individual animals, study week 3, SHIV dose 10 x TCID50): 1254 nM
- Plasma Compound Ib Concentrations (300 mg/kg SC day 0, individual animals, study week 4, SHIV dose 10 x TCID50): 743 nM
- Plasma Compound Ib Concentrations (300 mg/kg SC day 0, individual animals, study week 5, SHIV dose 10 x TCID50): 556 nM
- Plasma Compound Ib Concentrations (300 mg/kg SC day 0, individual animals, study week 6, SHIV dose 10 x TCID50): 396 nM
- Plasma Compound Ib Concentrations (300 mg/kg SC day 0, individual animals, study week 7, SHIV dose 10 x TCID50): 343 nM
- Plasma Compound Ib Concentrations (300 mg/kg SC day 0, individual animals, study week 8, SHIV dose 10 x TCID50): 287 nM
- Plasma Compound Ib Concentrations (300 mg/kg SC day 0, individual animals, study week 9, SHIV dose 33 x TCID50): 147 nM
- Plasma Compound Ib Concentrations (300 mg/kg SC day 0, individual animals, study week 10, SHIV dose 33 x TCID50): 131 nM and 73 nM and 70 nM and 55 nM and 98 nM and 117 nM and 106 nM and 114 nM
- Plasma Compound Ib Concentrations (300 mg/kg SC day 0, individual animals, study week 11, SHIV dose 100 x TCID50): 96 nM and 32 nM and 50 nM (2×) and 60 nM and 94 nM and 52 nM and 72 nM
- Plasma Compound Ib Concentrations (300 mg/kg SC day 0, individual animals, study week 12, SHIV dose 100 x TCID50): 53 nM and 93 nM and 85 nM and 66 nM and 84 nM and 75 nM and 101 nM
- Plasma Compound Ib Concentrations (300 mg/kg SC day 0, individual animals, study week 13, SHIV dose 100 x TCID50): 66 nM (2×) and 32 nM and 74 nM (2×) and 43 nM and 47 nM and 77 nM
- Plasma Compound Ib Concentrations (300 mg/kg SC day 0, individual animals, study week 14, SHIV dose 100 x TCID50): 63 nM and 40 nM and 83 nM and 94 nM and 45 nM and 85 nM and 41 nM and 86 nM
- Plasma Compound Ib Concentrations (300 mg/kg SC day 0, individual animals, study week 15, SHIV dose 100 x TCID50): 32 nM and 48 nM and 47 nM (2×) and 46 nM and 29 nM and 50 nM
- Plasma Compound Ib Concentrations (300 mg/kg SC day 0, individual animals, study week 16, SHIV dose N/A): 26 nM and 22 nM and 28 nM and 24 nM and 20 nM and 34 nM and 15 nM and 30 nM
- Plasma Compound Ib Concentrations (300 mg/kg SC day 0, individual animals, study week 17, SHIV dose N/A): 23 nM and 17 nM and 28 nM and 26 nM and 21 nM and 24 nM and 13 nM and 38 nM
